# Experimental data from the supplement of paper PMC3334620.
# Over roughly 33,000 sequences, “E-score (-0.5 to 0.5)” has its median near -0.017; the highest 2% begin near 0.3. This is one part of the list.
# Biological target: T1, Sut1 (UniProt P53032)
# T1 sequence: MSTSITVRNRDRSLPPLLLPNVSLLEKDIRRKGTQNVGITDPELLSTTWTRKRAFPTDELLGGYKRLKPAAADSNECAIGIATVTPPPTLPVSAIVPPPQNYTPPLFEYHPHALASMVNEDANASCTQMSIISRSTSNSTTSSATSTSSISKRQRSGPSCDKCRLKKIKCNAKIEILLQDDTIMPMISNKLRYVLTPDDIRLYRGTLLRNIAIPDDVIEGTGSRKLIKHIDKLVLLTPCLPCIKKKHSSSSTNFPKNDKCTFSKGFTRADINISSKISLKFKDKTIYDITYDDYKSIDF
# Assay: PBM E-score (8-mer binding enrichment) (E-score (-0.5 to 0.5)); higher = stronger / more preferred TF binding; most listed sequences are background and not binding sites
# Conditions: protein concentration: 200 nM; construct: GST-full length
# How it was run: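 For each ungapped eight-base word taken together with its reverse complement, the Universal PBM Analysis Suite assigned an E-score. Binding data came from GST-tagged yeast transcription factors, applied at about 100-200 nM, on universal all-10-mer Agilent arrays made double-stranded by primer extension. Fluorescent anti-GST marked bound protein, and scans were normalised with masliner.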
row,Sequence,PBM E-score
1,CAGGCCGG,-0.0888
2,GCCGTACC,-0.0266
3,ACGAAATA,0.0685
4,AAGGCGTC,-0.17
5,TAGATACA,0.0609
6,ACCATGCC,-0.274
7,GTCGAGGA,-0.232
8,AACCACAG,-0.169
9,CGCCTGTC,-0.236
10,CAGTCAGG,-0.144
11,CAAGAGAG,-0.00876
12,GAAATATA,0.253
13,ATCGTCAG,-0.181
14,ATCACTGA,-0.117
15,CTACTGCA,-0.212
16,CTTCATCC,-0.0471
17,AGAATCAT,0.0964
18,ACAAGTGC,-0.153
19,CGGCCTTA,0.11
20,CTCGAGCA,-0.0175
21,AGCGATGC,-0.255
22,ATTGGTAA,0.102
23,GCGTGGCC,-0.2
24,AACACCCT,-0.195

row,Sequence,PBM E-score
1,ACAGATGA,-0.255
2,AAACCAGA,-0.117
3,ACGGGGAA,0.0702
4,CCAGTGTC,-0.206
5,GGACTGAA,0.0817
6,ACGGAATG,0.127
7,AGCGGTTC,-0.0664
8,ACACCTAA,0.0763
9,GCAAACTA,-0.0205
10,CAGAAACA,0.00594
11,AATCCGAT,0.195
12,AAACCGAC,-0.00265
13,GCTCTTCC,-0.116
14,CAAAACGG,0.0744
15,CCTAACCG,-0.211
16,ATCTCTGA,-0.0359
17,ACACTGAG,-0.135
18,CGTGCCGC,-0.258
19,ATTCATCG,0.0869
20,ACTTGAAG,0.0592
21,AAGCCCTC,-0.213
22,CTAAATGA,0.0829
23,CCGCGGGC,0.118
24,TCATAAAA,0.156

row,Sequence,PBM E-score
1,ATCAAGCC,0.0302
2,AAAGTGGT,0.0517
3,ACACATAC,0.214
4,GGTCAGTA,-0.19
5,GGATGCCA,-0.207
6,GGGAATAC,-0.0577
7,TAGCACTA,-0.0357
8,CCACTTGA,0.0277
9,ACAGTCTA,-0.115
10,GCTATTAC,-0.019
11,CGTTAATC,0.0139
12,CGAGGGGA,-0.116
13,ACCAACCT,-0.0379
14,ATCCCCCG,-0.0337
15,CTAAACAA,0.132
16,CGGGGCTC,0.0261
17,AGGTAAAT,0.137
18,GGTGATAA,0.0162
19,GAACCGAA,0.13
20,AAATCCGG,0.36
21,GGGAAACC,0.00128
22,GGAGCAAC,0.018
23,ACAGCGCT,-0.251
24,CATCACCC,-0.159

row,Sequence,PBM E-score
1,AAGTTGAC,-0.11
2,AGCGAAGC,-0.0219
3,GTGAAAAC,0.0927
4,CAAAAGCA,0.126
5,CAGGAAAC,-0.133
6,AACTTACG,0.216
7,TTAATCAA,0.251
8,GTACTATA,0.286
9,CCGAGACC,0.128
10,CTTGTTCC,-0.0526
11,CATTGTAG,0.00424
12,ACGACCTC,0.128
13,AGGTATTG,0.0471
14,GAACACTA,0.13
15,ATTGTTTA,0.266
16,ATATACAT,0.284
17,CCTCCAGC,-0.352
18,GAAACTAC,0.145
19,AAATTCCT,0.0865
20,CGTGTCAG,0.154
21,ACGCACGA,-0.0303
22,CAGGCTAG,-0.258
